Test results from PubChem BioAssay AID1508624 (National Center for Advancing Translational Sciences (NCATS), 2021).
In all, about 48,000 compounds went through this assay and about 120 (0.25%) were called active. Another 4% or so got no clear call; they are omitted. Calls follow the shape of the dose curve; as a rule, active = well fitted activation curve with a large enough effect; inconclusive = small, poorly fitted or top-dose-only effect, or another doubt; inactive = no such curve, though single readings can be large or run the other way. This is one part of the list.

assay: Primary qHTS for Identification of Small Molecule Activators of Huntingtin-Antisense Promoter Activity; details: HEK293 HTT-AS promoter firefly luciferase reporter (activity 0% = vehicle and -100% = no light), 24 h; series mostly up to 57.5 µM; activity change, positive = activation: at the top concentration; also: nearly all actives have a fitted effect of over 55% in size
Summary of the method: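 Firefly luciferase readout (Dual-Glo, 10 min RT) after 24 h, 37 °C compound exposure (final up to 57.5 uM) of HEK293 reporter cells cultured 24 h beforehand; PTC124 at 50 uM final as control inhibitor; activity scaled vehicle 0%, zero RLU -100%.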

Activity change, positive = activation, inactive:
O=C(CN1C(=O)CCSc2ccccc21)Nc1ccccc1F -12.9%
CCOc1ccc(CCNC(=O)C2COc3ccccc3C2)cc1OCC (stereo unspecified) 9.68%
CC(CC(=O)Nc1ccc(Br)cc1F)S(=O)(=O)c1ccc2c(c1)NC(=O)CO2 (stereo unspecified) -14.6%
CC(C)c1ccc(C2N=C(N)Nc3nc4ccccc4n32)cc1 (stereo unspecified) -12.1%
Cc1c(C)n(C)c2ccc(C(=O)N3CCN(c4ccccc4)CC3)cc12 -12.3%
Cc1c(Cl)cccc1NC(=O)C(C)n1nnc2sc3c(c2c1=O)CCCC3 (stereo unspecified) -0.74%
CSc1ncc(Cl)c(C(=O)N(Cc2ccc(N(C)C)cc2)Cc2ccco2)n1 -41.6%
Cc1cc(C)cc(NC(=O)Cn2c(=O)c3ccccc3n3nncc23)c1 -1.71%
CCOC(=O)c1ccccc1NC(=O)c1sc2nc3n(c(=O)c2c1C)CCCC3 -3.28%
CCCCOc1ccc(CNC(=O)CCCN2C(=O)CSc3c2c(C)nn3-c2ccccc2)cc1 -32%
Cc1ccc2c(=O)cc(C(=O)Nc3ccc(S(=O)(=O)N4CCCCCC4)cc3)oc2c1C -7.46%
CCc1ccc(CNC(=O)CN2C(=O)c3cccnc3Oc3ccc(C)cc32)cc1 -13.9%
Cc1ccc(CNC(=O)Cn2cc(C(=O)c3ccc(F)cc3)c(=O)c3ccc(C)nc32)cc1 -15.1%
CCOC(=O)C1CCN(C(=O)C2CCN(C3=NS(=O)(=O)C(c4ccc(C)c(C)c4)=C3C)CC2)CC1 -19.4%
CCc1ccc(Cc2cnc(NC(=O)c3ccc4c(c3)CC(c3ccccc3)OC4=O)s2)cc1 (stereo unspecified) -34.3%
Cc1cccc(C2CC(=O)Oc3c2c(=O)n(C)c2ccccc32)c1 (stereo unspecified) -14.7%
NC(=O)C1(N2CCCCC2)CCN(CCCC(=O)c2ccc(F)cc2)CC1 -9.4%
CCC(=O)Nc1ccc(-c2nnc3c4ccccc4c(C)nn23)cc1 -7.21%
O=C(NCc1ccccc1)c1ccc2c(c1)CCN2S(=O)(=O)c1ccccc1 -15.7%
Cc1ccc(NC(=O)CSc2nc(=O)n(CCCN(C)C)c3c2CCC3)cc1F -7.22%
CCCc1ccc(S(=O)(=O)N2CCC(Oc3ccc(-n4cnnn4)cc3)CC2)cc1 -19%
CCOC(=O)c1[nH]c(C)c(CCC(=O)NCc2ccccc2Cl)c1C -15.5%
CNC(=O)c1ccc(Nc2nnc(-c3ccc(C)c(S(=O)(=O)N(C)C)c3)c3ccccc23)cc1 -23.1%
CNC1(C)C2CCC(C2)C1(C)C (stereo unspecified) -13.3%
Cc1cc(C)cc(OCCCn2c(CCNC(=O)C3CCCCC3)nc3ccccc32)c1 -20.4%
CCCCC(CC)CNC(=O)C1CCC(CNS(=O)(=O)c2cccc3nsnc23)CC1 (stereo unspecified) -21.2%
COc1ccc(CCNC(=O)CCCn2c(=O)c3ccccc3n(Cc3c(C)cc(C)cc3C)c2=O)cc1OC -14%
CCC(=O)N1c2ccc(S(=O)(=O)N3CCC(C)CC3)cc2CC1C (stereo unspecified) -28.8%
CC(C)(O)c1cc2nc(-c3cnc(N)nc3)nc(N3CCOCC3)c2s1 -50.7%
O=C(CC1C(=O)OCCN1Cc1ccccc1)Nc1ccc(F)cc1 (stereo unspecified) -18.1%
Cc1ccc(C)c(NC(=O)Cn2cc(C(=O)c3ccc(Cl)cc3)c(=O)c3ccc(C)nc32)c1 -16.6%
CC1CCN(S(=O)(=O)c2ccc(C(=O)Nc3sc4c(c3C(N)=O)CC(C)(C)NC4(C)C)cc2)CC1 -15.8%
Cc1cccc(C)c1-n1ncc(C(=O)N2CCN(c3ccccn3)CC2)c1C1CCN(C(=O)OC(C)(C)C)CC1 -12.1%
N#Cc1ccc(CSc2nc3c(c(=O)[nH]2)CCC3)cc1 -0.518%
COc1cc(NC(=O)CSc2nc(-c3ccc(C)cc3)nc3c2Cc2ccccc2O3)cc(OC)c1 -22.9%
Cc1ccc(S(=O)(=O)c2nc(-c3cccc(C)c3)oc2N2CCN(c3ccccc3)CC2)cc1 -24.7%
COc1ccc2c(c1)CCc1c(C(=O)Nc3c(C)nn(Cc4ccc(Cl)c(Cl)c4)c3C)noc1-2 -67.3%
CCCSc1ncc(Cl)c(C(=O)Nc2nc3ccc(OCC)cc3s2)n1 -3.03%
Cc1nc2nc(SCC(=O)NCCc3ccc(Cl)cc3)nn2c(C)c1Cc1ccccc1 -8.41%
COC(=O)c1sc2cccc(F)c2c1S(=O)(=O)N1CCN(c2ccc(F)cc2)CC1 -23.8%
Cc1ccc(CNC(=O)c2ccc3c(=O)n(-c4ccccc4)c(=O)[nH]c3c2)cc1 12.1%
S=c1nc[nH]c2nc[nH]c12
COc1cc(OC)c(NC(=O)NCc2ccc3c(c2)CCN3C(=O)c2ccccc2)cc1Cl -9.08%
CCc1ccccc1NC(=O)CSc1nc(-c2ccccc2OC)nc2c1Cc1c(CO)cnc(C)c1O2 -20.8%
COC(=O)C(CCSC)NC(=O)c1cc2c(n(-c3ccc(C)cc3)c1=O)CC(C)(C)CC2=O (stereo unspecified) -16.5%
CC(=O)c1cc(C(=O)Nc2cc(C)cc(C)c2)c2ccccn12 -19.4%
Cc1ccc2c(c1)cc1c(=O)n(CC(=O)NC3CCCCC3)nc(C)n12 -0.436%
CCOC(=O)CC1c2cc(OCC)c(OCC)cc2CCN1C(=O)Nc1cccc(Cl)c1 (stereo unspecified) -16.5%
Cc1cccn2c(=O)c3cc(C(=O)NCc4ccccc4)c(=N)n(CCOCCO)c3nc12 -12.9%
COc1cccc(CNC(=O)C2CCN(S(=O)(=O)c3cn(C)cn3)CC2)c1 -6.27%
CC(=O)N1c2ccc(S(=O)(=O)N3CCCCCC3)cc2CC1C(=O)NCc1ccc(Cl)cc1 (stereo unspecified) 0.634%
O=C(Cn1cc(SCc2ccc(C(F)(F)F)cc2)c2ccccc21)N1CCCC1 -0.311%
CCCOc1ccc(-c2nonc2NC(=O)c2oc3ccc(C)cc3c2C)cc1OCCC -4.79%
CCOC(=O)N1CCC(NC(=O)c2cnn(-c3cccc(Cl)c3C)c2C2CCN(C(=O)OC(C)(C)C)CC2)CC1 -0.344%
CN1CCN(c2nc3c(S(=O)(=O)c4ccc(Br)cc4)nnn3c3ccsc23)CC1 -3.39%
Oc1ccc(Cl)cc1C1=Nc2ccccc2N=C(c2cccc(Br)c2)C1 10.2%
COc1cccc(CN2CCc3nc(N4CCN(c5ncccn5)CC4)ncc3C2)c1 -53.4%
CCc1sc(Nc2cccc(Cl)c2C)nc1-c1cc2cccc(OC)c2oc1=O -15.7%
COc1ccc(OC)c(NC(=O)c2cc(CN3CCCC3)on2)c1 -10.5%
O=C(CC1C(=O)OCCN1Cc1ccccc1)Nc1cccc(C(F)(F)F)c1 (stereo unspecified) -31.2%
Cc1cccc(-c2nc3c4ccccc4nc(NCc4ccc(Cl)cc4)n3n2)c1 9.57%
